Data: the supplement of paper PMC3334620
In all, about 33,000 sequences were measured (“E-score (-0.5 to 0.5)”: median about -0.054, highest 2% from about 0.35 on). Some of the results follow.

These sequences were tested against T1, Stb5 (UniProt P38699) (assay: PBM E-score (8-mer binding enrichment) (E-score (-0.5 to 0.5)); higher = stronger / more preferred TF binding; most listed sequences are background and not binding sites). Details: protein concentration: 200 nM; construct: GST-full length.
T1 sequence: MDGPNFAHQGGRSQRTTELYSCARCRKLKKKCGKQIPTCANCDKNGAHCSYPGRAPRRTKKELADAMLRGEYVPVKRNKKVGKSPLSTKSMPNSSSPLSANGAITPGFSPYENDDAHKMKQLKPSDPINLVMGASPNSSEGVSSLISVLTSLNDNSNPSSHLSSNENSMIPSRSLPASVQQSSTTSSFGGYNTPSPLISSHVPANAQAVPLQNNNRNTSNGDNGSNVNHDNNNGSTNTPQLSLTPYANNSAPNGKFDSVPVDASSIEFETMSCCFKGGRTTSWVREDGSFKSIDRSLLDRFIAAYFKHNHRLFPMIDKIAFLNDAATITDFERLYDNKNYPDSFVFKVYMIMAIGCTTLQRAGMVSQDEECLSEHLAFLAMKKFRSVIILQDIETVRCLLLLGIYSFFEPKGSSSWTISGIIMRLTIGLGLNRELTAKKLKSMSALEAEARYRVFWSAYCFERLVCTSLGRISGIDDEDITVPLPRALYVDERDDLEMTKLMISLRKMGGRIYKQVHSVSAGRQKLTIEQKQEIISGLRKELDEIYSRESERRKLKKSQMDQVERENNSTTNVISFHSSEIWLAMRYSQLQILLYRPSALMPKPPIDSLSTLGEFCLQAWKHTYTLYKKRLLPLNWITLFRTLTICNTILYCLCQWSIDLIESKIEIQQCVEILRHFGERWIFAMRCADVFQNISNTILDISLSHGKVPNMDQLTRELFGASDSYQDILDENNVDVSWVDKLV
Outline: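 Bound GST-tagged yeast transcription factors, applied at about 100-200 nM to double-stranded universal all-10-mer Agilent arrays, were detected with fluorescent anti-GST. Scans were normalised with masliner. A modified Wilcoxon-Mann-Whitney statistic, the E-score, was assigned to each ungapped eight-base word pooled with its reverse complement by the Universal PBM Analysis Suite.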

Compared with CAATCATG, ACCATGCA is lower in “PBM E-score” value: -0.102 for the first, -0.139 for the second.

Compared with GATTCGCA, ACCGCCAT is higher in “PBM E-score” value: 0.0603 for the first, 0.265 for the second.

Compared with CTTCGCCA, AAGCCCAC is higher in “PBM E-score” value: 0.0018 for the first, 0.0467 for the second.

Compared with CTAATTCC, AGTCACGG is higher in “PBM E-score” value: 0.15 for the first, 0.23 for the second.

First: AGGCGCAT
Second: CACACGCC
The “PBM E-score” value of the first is lower: -0.0573 for the first, 0.155 for the second.

First: CGCTTTGC
Second: GTCTTCTA
The “PBM E-score” value of the first is higher: 0.172 for the first, -0.225 for the second.

Going from CAAGCGCG to GGCTAATA, the “PBM E-score” value rises from 0.0271 to 0.126.

Going from AGAAAGGG to CGAGATCC, the “PBM E-score” value rises from -0.205 to -0.0962.

Compared with ACAAGCTG, AGGAGGTG is higher in “PBM E-score” value: -0.232 for the first, -0.197 for the second.

Going from ATCGAGAA to AAGCAGTA, the “PBM E-score” value rises from -0.335 to -0.266.

First: CACCTAAA
Second: GCGTAGCC
The “PBM E-score” value of the first is higher: 0.0247 for the first, -0.19 for the second.

First: CATGGTCA
Second: CATATACA
The “PBM E-score” value of the first is lower: -0.206 for the first, -0.0281 for the second.

Compared with GGATGCCC, ACCGAGCT is higher in “PBM E-score” value: -0.0098 for the first, 0.0882 for the second.

Compared with CTAGGTAC, CATCCCAG is lower in “PBM E-score” value: -0.113 for the first, -0.212 for the second.

First: ATGGTCAA
Second: CATAGTGA
The “PBM E-score” value of the first is higher: -0.0926 for the first, -0.2 for the second.

Going from CGCAGACA to ATATTCCA, the “PBM E-score” value rises from -0.0673 to -0.0602.

Going from CTGCACCC to CTATTTTC, the “PBM E-score” value rises from 0.0184 to 0.0555.

First: CGAGGAAA
Second: ATGACGGC
The “PBM E-score” value of the first is lower: -0.238 for the first, 0.24 for the second.

Going from GCGCTGAC to GCTGGCCC, the “PBM E-score” value falls from 0.0553 to -0.184.

Going from CTTTACAC to CAGCAGAG, the “PBM E-score” value falls from 0.0697 to -0.278.

Compared with AAGCGTCC, AGATATGC is higher in “PBM E-score” value: -0.285 for the first, -0.0711 for the second.

Going from AAAAGTCA to CGCTAAAG, the “PBM E-score” value rises from -0.0354 to -0.021.

Going from AAGGTACA to ACTTGTGC, the “PBM E-score” value rises from -0.355 to 0.072.

First: CAAAGAGA
Second: ATAACTCC
The “PBM E-score” value of the first is lower: -0.152 for the first, 0.429 for the second.

First: AAATCCTC
Second: TCGTTGAA
The “PBM E-score” value of the first is higher: 0.0211 for the first, -0.126 for the second.

Compared with ACAAGGAT, GAATAATA is higher in “PBM E-score” value: -0.294 for the first, 0.214 for the second.

First: GACGGTTA
Second: CTGGTGAA
The “PBM E-score” value of the first is higher: 0.107 for the first, -0.271 for the second.

First: ACGGAACC
Second: CTACGTAC
The “PBM E-score” value of the first is higher: 0.132 for the first, -0.115 for the second.

First: CATTATCG
Second: ATCGGTCA
The “PBM E-score” value of the first is lower: 0.0609 for the first, 0.208 for the second.

Going from GGGAATAA to ATAAAAAG, the “PBM E-score” value falls from 0.373 to -0.00413.

Compared with AAAGCGAC, CCTATACA is lower in “PBM E-score” value: 0.0256 for the first, -0.193 for the second.

Going from CACGGTGC to CCATCGCC, the “PBM E-score” value falls from 0.306 to 0.0103.

Going from ACGGGGGA to ACGACCCG, the “PBM E-score” value falls from 0.0722 to -0.00346.

Going from GGATTTGA to CGTCCCCA, the “PBM E-score” value falls from 0.0861 to 0.0206.

Going from CCGCTATC to CTCTGCAC, the “PBM E-score” value falls from 0.341 to -0.0404.

Compared with AATACGCC, AAAGCACT is lower in “PBM E-score” value: 0.238 for the first, -0.00142 for the second.

Compared with GTCACCTA, CTGTATAC is lower in “PBM E-score” value: -0.102 for the first, -0.109 for the second.

Going from GTCAGTCA to ACGATTGC, the “PBM E-score” value rises from -0.217 to -0.119.

Compared with ACTTAATC, GGCATCAC is higher in “PBM E-score” value: -0.166 for the first, 0.203 for the second.

First: GGTATCAC
Second: ACAGATAC
The “PBM E-score” value of the first is higher: 0.183 for the first, 0.0761 for the second.

First: GTACAGCA
Second: ATACACAT
The “PBM E-score” value of the first is higher: -0.0537 for the first, -0.198 for the second.

First: AGCCTAGG
Second: ACCTTAAA
The “PBM E-score” value of the first is lower: -0.222 for the first, 0.0476 for the second.

Going from AATTCGGT to AGGTTTTC, the “PBM E-score” value falls from 0.153 to -0.258.
